Assay results: PubChem BioAssay AID1346428 (National Center for Advancing Translational Sciences (NCATS), 2018)
Hit rate of the full screen: of about 48,000 compounds, about 1,200 (2.5%) were called active. Inconclusive results (about 2%) are left out.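 Rule for the calls: active = activation of at least 60% and not above a set upper limit (about 1 call in 100 departs from these limits); inconclusive = activation of 40% to 60%, or above that upper limit; inactive = activation under 40%.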 This is one part of the list.

Each compound was assayed against Probable G-protein coupled receptor 32 (Homo sapiens) (UniProt O75388) (assay: qHTS for Agonists of Human Resolvin D1 Receptor DRV1). Details: CHO-K1 GPR32 beta-arrestin PathHunter luminescence, 90 min; at 76.9 µM; stronger effect = higher value; zero percent set by DMSO-only wells.
Chain of UniProt O75388 (O75388 whole entry, looked up): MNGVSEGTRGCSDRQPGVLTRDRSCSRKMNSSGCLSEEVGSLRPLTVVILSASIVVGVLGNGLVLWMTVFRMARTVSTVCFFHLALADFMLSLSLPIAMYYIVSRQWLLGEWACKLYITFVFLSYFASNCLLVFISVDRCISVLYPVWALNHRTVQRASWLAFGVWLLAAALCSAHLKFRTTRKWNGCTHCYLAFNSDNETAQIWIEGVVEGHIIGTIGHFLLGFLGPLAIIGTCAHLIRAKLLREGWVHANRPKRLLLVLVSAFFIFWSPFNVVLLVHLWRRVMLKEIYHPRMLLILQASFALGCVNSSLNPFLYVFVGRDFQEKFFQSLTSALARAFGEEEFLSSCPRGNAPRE
In short: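 Beta-arrestin recruitment read-out: luminescence from complemented beta-Gal in CHO-K1 GPR32 PathHunter cells, measured 1 h after detection reagent at ambient temperature following 90 min compound exposure at 37 °C; DMSO served as basal (EC0) control.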
In the case of `COc1cc(C2Nc3ccccc3-c3cc(C)nn32)ccc1O` (stereo not drawn), the activation was inactive: -19.9%. With `CCOC(=O)c1cccc(NC(=O)CCSCCc2ccccn2)c1` the activation was inactive: -6.74%. For `COc1cccc(CNC(=O)c2cc3c(-c4ccccc4F)nn(C)c3s2)c1`, the activation was inactive: 8.96%. In the case of `O=C(CCCn1c2ccccc2c(=O)c2ccccc21)Nc1cccc(Cl)c1`, the activation was inactive: 16.4%. `O=S(=O)(c1ccc(Br)s1)N1CCN(c2cccc(C(F)(F)F)c2)CC1` was tested, and the activation was inactive: -28.4%. In the case of `O=C(NCCc1ccc(Cl)cc1)c1c2c(nc3ccccc13)C(=O)N(C1CCCCC1)C2`, the activation was inactive: -5.91%. With `Cc1csc2nc(COC(=O)c3ccccc3NC(=O)c3cccc(Br)c3)cc(=O)n12` the activation was inactive: 8.92%. In the case of `COCCn1c(SCC(=O)Nc2cc(Cl)ccc2OC)nc2c([nH]c3ccccc32)c1=O`, the activation was inactive: -5.47%. With `Cc1ccc(N2CCN(C(=O)c3nn(C)c4c3CS(=O)(=O)c3ccccc3-4)CC2)c(C)c1` the activation was inactive: -4.95%. With `CCc1ccc2nc(N(Cc3cccnc3)C(=O)c3ccc(C#N)cc3)sc2c1` the activation was inactive: -15.1%. For `CCCCC(=O)Nc1ccc2nc(SCC(=O)N3CCc4ccccc43)sc2c1`, the activation was inactive: 13.9%. `CC(=O)Nc1ccc(NC(=O)c2oc3c(c2C)-c2nn(Cc4ccccc4Cl)cc2CC3)cc1` was tested, and the activation was inactive: -7.22%. In the case of `O=C(CCn1c(=O)c2sccc2n(Cc2ccccc2F)c1=O)NCc1ccc2c(c1)OCO2`, the activation was inactive: -2.62%. For `CCOC(=O)c1ccc(NC(=O)Cn2nc3c4ccccc4n(Cc4cccc(F)c4)cc-3c2=O)cc1`, the activation was inactive: -5.57%. `CCOC(=O)N1CCc2c(sc3c2c(=O)n(Cc2ccccc2)c(=O)n3CC(=O)Nc2cccc(CC)c2)C1` was tested, and the activation was inactive: -5.25%. `CCc1cccc(NC(=O)CCn2c(=O)c3cccn3c3cccnc32)c1` was tested, and the activation was inactive: -14.1%. In the case of `Cc1ccc(Nc2ccc3cc(S(=O)(=O)N4CCC(C)CC4)ccc3n2)c(Cl)c1`, the activation was inactive: -41.4%. For `CCOc1ccc(-n2cc(-c3ccccc3)c3c(NCCc4ccccc4)ncnc32)cc1`, the activation was inactive: -30.9%. In the case of `Cc1cccc(NC(=O)Cn2nc(-c3ccccc3)c3cnc4ccccc4c32)c1`, the activation was inactive: 13.3%. In the case of `COc1ccc(C(=O)c2c(N)c(-c3nc(-c4ccc5c(c4)OCO5)cs3)c3ccccn23)cc1`, the activation was inactive: -3.8%. `O=C(NCCc1ccccc1)c1ccc(CS(=O)Cc2ccc(Cl)cc2)o1` (stereo not drawn) was tested, and the activation was inactive: -21.7%. For `O=C(CCNS(=O)(=O)c1ccc2c(c1)CCCC(=O)N2)Nc1cccc(Cl)c1`, the activation was inactive: 44.6%. `Cc1cc(NC(=O)CCc2nc3cccnc3n2-c2ccccc2)ccc1Br` was tested, and the activation was active: 65.8%. In the case of `COC(=O)Cn1c(C2CC(=O)N(c3c(C)cccc3C)C2)nc2ccccc21` (stereo not drawn), the activation was inactive: -2.69%. For `O=S(=O)(c1ccc(C2CCCCC2)cc1)N1CCN(c2ccc(Cl)c(Cl)c2)CC1`, the activation was inactive: -6.64%. With `O=C(Nc1ccc(F)cc1F)C1CCN(c2ncccn2)CC1` the activation was inactive: 14.7%. For `Cc1ccc(C)c(N2CCN(c3ncnc4c3nc3n4CCCC3)CC2)c1`, the activation was inactive: -3.02%. In the case of `Cc1ccccc1NC(=O)Cn1cc(C(=O)c2ccco2)c2ccccc21`, the activation was inactive: -12.5%. With `Cc1ccc(-c2nn3c(-c4ccccc4C)nnc3c3ccccc23)cc1` the activation was inactive: -18%. `CCOC(=O)c1cc(-c2ccccc2)n(-c2cccc(C(=O)Nc3cccc(SC)c3)c2)c1C` was tested, and the activation was inactive: -21.5%. `Cc1cn2c(=O)cc(COC(=O)c3ccc(NC(=O)COc4ccccc4C)cc3)nc2s1` was tested, and the activation was inactive: -17.4%. `COc1ccc(CCC(=O)NCCc2csc(-c3ccc(F)cc3)n2)cc1` was tested, and the activation was inactive: -6.96%. `CCC(=O)Oc1ccc2c(c1)CC[C@@H]1[C@@H]2CC[C@@]2(C)[C@H]1C[C@@H](OC(=O)CC)[C@@H]2OC(=O)CC` was tested, and the activation was inactive: -13.5%. `COc1ccc(OC)c(NC(=O)CSc2nc(=O)n(CCN(C)C)c3c2CCC3)c1` was tested, and the activation was inactive: -7.35%. For `CCc1ccccc1NC(=O)N1CCOc2ccccc21`, the activation was inactive: -20.4%. In the case of `CCCOc1ccc(C2C(=O)N(C3CCCCCC3)CC(=O)N2Cc2ccccc2OC)cc1OC` (stereo not drawn), the activation was inactive: -33.2%. For `O=C(Cn1ncc2c([nH]c3ccccc32)c1=O)NCCCN1CCN(c2ccc(F)cc2)CC1`, the activation was inactive: 7.7%. With `COc1cc(NC(=O)CC2C(=O)N(c3ccccc3)C(=O)N2Cc2ccc(F)cc2)cc(OC)c1` (stereo not drawn) the activation was inactive: -25.3%. `CCCn1c2ccccc2c2cnn(CC(=O)Nc3cc(C)c(Cl)cc3OC)c(=O)c21` was tested, and the activation was inactive: -6.7%. In the case of `CCc1ccc(-n2c(=O)c3c4c(sc3n(Cc3ccccc3C#N)c2=O)CCCC4)cc1`, the activation was inactive: -11%. For `CC1CCc2c(sc(NC(=O)Cc3ccccc3)c2C(=O)Nc2ccc(Cl)cc2)C1` (stereo not drawn), the activation was inactive: 0.429%. In the case of `COc1ccc(CNC(=O)CCNS(=O)(=O)c2ccc3c(c2)oc(=O)n3C)cc1`, the activation was inactive: -6.86%. With `O=C(O)CC1CCCc2ccccc2C1O` (stereo not drawn) the activation was inactive: -1.28%. With `CCC1CN(C(=O)Nc2ccccc2F)c2cc(C)ccc2O1` (stereo not drawn) the activation was inactive: -19.2%. For `CCOc1ccc(-c2nc(Cn3c(=O)cc(C)c4c(C)nn(-c5ccccc5)c43)c(C)o2)cc1`, the activation was inactive: -0.0055%. For `CC1CCN(CC2CCN(C(=O)NCc3ccccc3)CC2)CC1`, the activation was inactive: 3.14%. In the case of `CCCCCCn1nnc2sc(-c3ccccc3)cc2c1=O`, the activation was inactive: 0.65%. For `Cc1cc2c(s1)Nc1ccccc1N=C2N1CCN(C)CC1`, the activation was inactive: 5%. With `Cc1ccccc1C(=O)Nc1cc(C)c(O)c(-c2nc3ccccc3o2)c1` the activation was inactive: 6.86%. For `COc1cc(C)ccc1OCCSc1nc2ccc(NC(=O)c3ccco3)cc2s1`, the activation was inactive: 7.82%. With `CCN1c2ccccc2-c2nc(SCC(=O)Nc3cccc(C)c3C)ncc2S1(=O)=O` the activation was inactive: 21.8%. `CCn1cc(C(=O)N(C)Cc2ccccc2)c(=O)c2cc(S(=O)(=O)N3CCc4ccccc4C3)ccc21` was tested, and the activation was inactive: -26.1%. For `COc1ccc(C2CC(=O)c3cc(-c4nc(-c5cccc([N+](=O)[O-])c5)cs4)c(=O)n(-c4ccccc4)c3C2)cc1` (stereo not drawn), the activation was inactive: 0.151%.
